Among all 340,000 compounds or so, about 6,900 (2%) were called active. Rule as the data show it: active = inhibition above about 30%; inactive = below that, where a call was filed. The list shows a part of the results, in another mix than the full data. The source gives no active or inactive call for entries shown without one.
These molecules were tested against D(2) dopamine receptor (Homo sapiens) (UniProt P14416) (assay: HTS Assay for Allosteric Antagonists of the Human D2 Dopamine Receptor: Primary Screen for Antagonists). Settings: HEK293 TREx D2 cells, calcium flux, dopamine EC80; at 10 µM; stronger effect = higher value.
Sequence of UniProt P14416 (P14416 whole entry, looked up): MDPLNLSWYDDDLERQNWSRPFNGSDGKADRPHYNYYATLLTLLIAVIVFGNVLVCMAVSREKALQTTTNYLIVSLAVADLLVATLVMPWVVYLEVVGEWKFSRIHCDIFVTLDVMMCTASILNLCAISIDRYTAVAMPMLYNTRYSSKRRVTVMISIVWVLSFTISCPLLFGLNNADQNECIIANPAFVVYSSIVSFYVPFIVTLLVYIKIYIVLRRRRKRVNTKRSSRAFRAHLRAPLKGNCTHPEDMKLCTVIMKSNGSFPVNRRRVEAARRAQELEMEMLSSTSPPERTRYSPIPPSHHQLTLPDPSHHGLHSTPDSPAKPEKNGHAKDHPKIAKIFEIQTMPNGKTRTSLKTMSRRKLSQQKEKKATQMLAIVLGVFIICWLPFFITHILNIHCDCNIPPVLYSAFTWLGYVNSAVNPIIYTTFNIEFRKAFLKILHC
Outline: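 Tetracycline-induced HEK293 TREx cells expressing D2 receptor forced-coupled to calcium signalling, loaded with no-wash calcium dye. Compounds added and calcium flux read 180 s, then dopamine added at EC80 and read a further 180 s.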
With `COc1cccc(-n2c(=O)c3sc4ccccc4c3n(Cc3c(F)cccc3Cl)c2=O)c1` the inhibition was -3.89%. `Cc1ccc(-n2nc(CO)c(C(=O)NCCC(C)C)n2)cc1C` was tested, and the inhibition was -6.21%. Molecule `CCc1cccc(NC(=O)CSc2nnc(-c3cc4occc4n3C)n2-c2ccccc2C)c1` has an inhibition of -4.56%. `COc1ccc(N(CC(=O)N2CCc3ccccc3C2)S(=O)(=O)c2ccccc2)cc1` gave an inhibition of 9.43%. `COc1cc(O)c(C(CCN2CCN(c3ccccc3)CC2)c2cc(OC)c(OC)c(OC)c2)c(OC)c1` (centres undefined) was tested, and the inhibition was active: 67.1%. In the case of `COc1ccccc1C1C(C(=O)N2CCCCC2)=C(C)Nc2nc3ccccc3n21` (centres undefined), the inhibition was -3.7%. `CCOC(=O)c1nnn(C(CC)C(=O)Nc2ccc(F)cc2)c1C(=O)OCC` (centres undefined) showed an inhibition of 17.7%. In the case of `O=C(NCC1CCOCC1)c1ccc2nc(Cc3cccc(Cl)c3)oc2c1`, the inhibition was active: 61.1%. In the case of `COc1ccc2c(c1)-c1nc(NC(=O)c3cccc(Br)c3)sc1CC2`, the inhibition was 12.9%. With `Cc1ccc(Nc2c3c(nc4nncn24)CCC3)c(C)c1` the inhibition was 16.3%. Molecule `Cc1ccc(NC(=O)CN2C(=O)c3cccnc3Sc3ccccc32)c(Br)c1` has an inhibition of -3.13%. Molecule `Cc1ccc(NC(=O)Cn2nnc(-c3ccccc3)n2)c(C)c1` has an inhibition of -11.8%. Work on `CCOC(=O)c1c(NC(=O)c2cc(-c3cccc(Cl)c3)on2)sc(C(C)=O)c1C` yielded an inhibition of -19.8%. `O=C(C1COc2ccccc2O1)N(Cc1cccnc1)c1nc2c(F)cccc2s1` (centres undefined) showed an inhibition of 25.2%. Work on `CC1CCN(S(=O)(=O)c2cc(C(=O)N3CCN(c4cccc(Cl)c4)CC3)n(C)c2)CC1` yielded an inhibition of -2.17%. In the case of `O=C(c1ccc(N2C(=O)CCC2=O)cc1)N1CCOCC1`, the inhibition was active: 53.1%. Molecule `Cc1cc(C)c2c(=O)cc(C(=O)Nc3sc4c(c3C(=O)NCc3ccco3)CCCC4)oc2c1` has an inhibition of -24.1%. Work on `Cc1cccc(OCC(=O)N2CCC(c3nc4ccccc4o3)CC2)c1C` yielded an inhibition of 6.37%. In the case of `COCCNC(=S)N(CCc1c(C)[nH]c2ccc(C)cc12)Cc1cc(OC)c(OC)c(OC)c1`, the inhibition was active: 31.3%. `COc1ccc(NC(=O)Cn2c(=O)c3ccccc3n3nncc23)cc1Cl` was tested, and the inhibition was -20.7%. Molecule `CN(c1nnc(NC(=O)Nc2ccccc2C(F)(F)F)s1)C1CCCCC1` has an inhibition of 9.54%. `COCc1cc(C)nc2c1C(=O)NC(c1ccc(NC(C)=O)cc1)N2Cc1ccccc1` (centres undefined) was tested, and the inhibition was 5.68%. With `CC(=O)c1ccc(NC(=O)c2nc(-c3ccc(Cl)cc3)n3c2CCCCC3)cc1` the inhibition was -19%. `COc1cccc(OCC(=O)NC2CC(=O)N(c3cccc(OC)c3)C2)c1` (centres undefined) showed an inhibition of -5.39%. For `COC(=O)c1cc(NC(=O)CC2C(=O)OCCN2Cc2ccccc2)cc(C(=O)OC)c1` (centres undefined), the inhibition was -7.69%. `Cc1ccccc1CSc1nc2c(sc3ccccc32)c(=O)n1CCCC(=O)NCCCOC(C)C` was tested, and the inhibition was -1.97%. `CCOc1nc(-c2ccccc2)ccc1-c1noc(-c2ccc(C)cc2)n1` was tested, and the inhibition was 14.1%. With `O=C(Cn1cc(SCc2cccc(Cl)c2)c2ccccc21)N1CCCCC1` the inhibition was -3.05%. With `CCOc1ccc(NC(=O)CC2C(=O)N(c3ccccc3)C(=O)N2CCc2sccc2C)cc1` (centres undefined) the inhibition was 9.42%. For `Cc1c(C(=O)OC2CCC(C)CC2)[nH]c2c1C(=O)CC(c1ccc(N(C)C)cc1)C2` (centres undefined), the inhibition was 5.27%. Molecule `COc1ccc(S(=O)(=O)c2c(C(=O)c3ccc(C)c(C)c3)cnc3ccc(C)cc23)cc1` has an inhibition of -2.31%. In the case of `COc1ccc(C)cc1NC(=O)NCCC1=CCCCC1`, the inhibition was active: 85.8%. Work on `COc1ccc(/C=C/c2nc(C#N)c(NCc3ccc(C)cc3)o2)cc1OC` yielded an inhibition of -1.38%. With `Cc1c2cnn(CC(=O)NC(C)C)c(=O)c2c(C)n1Cc1cccc(Cl)c1` the inhibition was -2.54%. For `Cc1ccc(NC(=O)N2CCC3(CC2)Oc2ccccc2C(=O)N3Cc2ccc(F)cc2)cc1`, the inhibition was 1.92%. For `CCNC(=O)c1ccc2c(c1)sc1nc(-c3cccc(OC)c3)cn12`, the inhibition was -11.8%. For `COc1ccc2c(c1OC)C(=O)N1c3ccccc3C(=O)N(c3ccc(F)cc3)C21` (centres undefined), the inhibition was active: 40.6%. `Cc1cc(C)c2oc(C(=O)Nc3ccc(S(=O)(=O)Nc4ncccn4)cc3)cc(=O)c2c1` was tested, and the inhibition was 1.63%. Molecule `O=C(CCCn1ncn2c(cc3occc32)c1=O)NCc1ccccc1F` has an inhibition of -0.992%. Molecule `Cc1cc2c(cc1S(=O)(=O)C(C)CC(=O)NC1CCC(C)CC1)OCC(=O)N2` (centres undefined) has an inhibition of -2.3%. Work on `O=C(Nc1ccccc1C(F)(F)F)c1cc2nc(-c3ccccc3)cc(-c3ccccc3)n2n1` yielded an inhibition of -0.962%. `COc1ccccc1NC(=O)c1sc(-c2ccc(Cl)cc2)cc1N` showed an inhibition of -26.4%. For `CCc1ccc2c(c1)NC(c1ccc(F)cc1)=NC(c1ccncc1)=N2`, the inhibition was 8.43%. `COc1ccc2c(c1)c(CC(=O)Nc1cc(C)cc(C)c1)c(C)n2C(=O)c1ccc(Cl)cc1` was tested, and the inhibition was 7.13%.

From PubChem BioAssay AID485344 (National Center for Advancing Translational Sciences (NCATS), 2010)
Also: 0% is about no effect.
